In the supplement of paper PMC8285479:
Counter-ions that a name gives are not always drawn. ± gives the standard deviation of the averaged measurements. In all, about 1,900 compounds were measured (“normalised cell viability (NPI; 0 = phenylarsine oxide control, 1 = DMSO control)”: median about 1, lowest 2% from about 0.039 on). The list shows a part of the results.

Test system: NCI-H1944
Experiment: normalised cell viability (NPI; 0 = phenylarsine oxide control, 1 = DMSO control) (fraction of DMSO control); NCI-H1944 is a non-small cell lung cancer line; higher = more viable cells (less compound toxicity)
Settings: 6 days
[1] = glucocorticoid arm: hydrocortisone 2.75 uM co-treatment, compound 1 µM
[2] = glucocorticoid arm: hydrocortisone 2.75 uM co-treatment, compound 5 µM
[3] = glucocorticoid arm: hydrocortisone 2.75 uM pre-treated 2 days and continued, compound 1 µM
[4] = glucocorticoid arm: hydrocortisone 2.75 uM pre-treated 2 days and continued, compound 5 µM
[5] = glucocorticoid arm: vehicle, compound 1 µM
[6] = glucocorticoid arm: vehicle, compound 5 µM
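Further: CTB read-out in 384-well plates, mean of triplicate wells, normalised per plate against 1 µM phenylarsine oxide and 0.1% DMSO, compounds added 24 h after seeding.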

Row | SMILES | normalised cell viability [1] | normalised cell viability [2] | normalised cell viability [3] | normalised cell viability [4] | normalised cell viability [5] | normalised cell viability [6]
1 | COc1cc2c(cc1OC)[C@@H](c1ccccc1)CN(C)CC2 | 0.9913 ± 0.006 | 1.023 ± 0.0058 | 1.02 ± 0.011 | 1.01 ± 0.019 | 0.9883 ± 0.0015 | 0.9863 ± 0.0055
2 | NC(=O)c1ncn([C@@H]2O[C@H](CO)[C@@H](O)[C@H]2O)c1N [Acadesine] | 1.01 ± 0.015 | 1 ± 0.012 | 1.02 ± 0.011 | 1.02 ± 0.041 | 0.998 ± 0.014 | 0.9957 ± 0.0075
3 | CC1=C(/C=C/C(C)=C/C=C/C(C)=C/C(=O)Nc2ccc(O)cc2)C(C)(C)CCC1 [Retinoic acid p-hydroxyanilide] | 1.01 | 1.03 ± 0.026 | 0.9903 ± 0.0021 | 1.07 ± 0.017 | 0.999 ± 0.0017 | 0.963 ± 0.005
4 | C[C@@H]1C(=O)O[C@H]2C[C@@]34[C@H]5C[C@@H](C(C)(C)C)[C@]36[C@@H](OC(=O)[C@@H]6O)O[C@@]4(C(=O)O5)[C@]21O [Ginkgolide A] | 0.9947 ± 0.0084 | 0.986 ± 0.01 | 0.994 ± 0.016 | 0.997 ± 0.02 | 1.002 ± 0.0072 | 0.9947 ± 0.0051
5 | CC1=C(C(=O)OC2CCCCC2)C(c2ccc([N+](=O)[O-])cc2)C2=C(CC(C)(C)CC2=O)N1 (stereo not given) | 1.03 ± 0.025 | 1.02 ± 0.023 | 1.03 ± 0.015 | 1.02 ± 0.026 | 1.017 ± 0.0058 | 1.003 ± 0.0058
6 | CC(=O)Oc1cc(C(C)C)c(OCCN(C)C)cc1C [Moxisylyte hydrochloride] | 0.9967 ± 0.0058 | 0.977 ± 0.052 | 1 ± 0.028 | 0.964 ± 0.04 | 1.01 | 1.02 ± 0.028
7 | CC(C)N(CCCNC(=O)Nc1ccc(C(C)(C)C)cc1)C[C@H]1O[C@@H](n2cc(Br)c3c(N)ncnc32)[C@H](O)[C@@H]1O | 1.033 ± 0.0058 | 1.1 ± 0.029 | 1.03 ± 0.01 | 1.063 ± 0.0058 | 1.01 ± 0.013 | 1.017 ± 0.0058
8 | CC1=C(CC(=O)O)c2cc(F)ccc2/C1=C\c1ccc(S(C)(=O)=O)cc1 [Sulindac sulfone] | 1.001 ± 0.0081 | 1.02 ± 0.015 | 1.01 ± 0.024 | 1 ± 0.011 | 1.002 ± 0.0072 | 1.003 ± 0.0061
9 | NC(N)=NC(=O)c1nc(Cl)c(N2CCCCCC2)nc1N [5-(N,N-hexamethylene)amiloride] | 0.995 ± 0.005 | 0.927 ± 0.015 | 0.9913 ± 0.009 | 1.04 ± 0.021 | 0.974 ± 0.007 | 0.723 ± 0.16
10 | O=C(c1ccc2c(c1)OCCO2)N1CCCCC1 | 1.005 ± 0.0092 | 1 ± 0.017 | 1.01 | 1 ± 0.017 | 0.9913 ± 0.0096 | 0.9947 ± 0.0021
11 | COc1c/c(=C2\C=c3ccccc3=N2)[nH]/c1=C\c1[nH]c(C)cc1C [Obatoclax mesylate (GX15-070)] | 0.972 ± 0.014 | 0.42 ± 0.019 | 1 ± 0.0087 | 1.03 ± 0.015 | 0.564 ± 0.07 | 0.0292 ± 0.0041
12 | CC(C)CN(C)c1nc(N)c(C(=O)N=C(N)N)nc1Cl [5-(N-Methyl-N-isobutyl)amiloride] | 0.998 ± 0.03 | 1.06 ± 0.042 | 1.01 ± 0.01 | 1.02 ± 0.021 | 1.003 ± 0.0061 | 1.02
13 | CC(C)[C@H]1c2ccc(F)cc2CC[C@@]1(CCN(C)CCCc1nc2ccccc2[nH]1)OC(=O)C1CC1 | 0.9943 ± 0.0051 | -0.000718 ± 0.00075 | 1.013 ± 0.0058 | 1.08 ± 0.035 | 0.989 ± 0.0095 | -6.33e-05 ± 0.0017
14 | COc1cc(N2CCC(N)CC2)ccc1Nc1ncc(Cl)c(-c2c[nH]c3ccccc23)n1 | 0.381 ± 0.011 | 0.326 ± 0.0099 | 0.421 ± 0.052 | 0.33 ± 0.02 | 0.637 ± 0.031 | 0.135 ± 0.019
15 | O=C1CN(/N=C/c2ccc(-c3ccc([N+](=O)[O-])cc3)o2)C(=O)N1 [Dantrolene sodium] | 0.993 ± 0.013 | 0.979 ± 0.019 | 0.998 ± 0.011 | 0.969 ± 0.0017 | 0.97 ± 0.001 | 0.9637 ± 0.0045
16 | Oc1ccc(Cn2cc[nH]c2=S)cc1 [1-(4-Hydroxybenzyl)imidazole-2-thiol] | 0.98 ± 0.018 | 0.972 ± 0.016 | 0.982 ± 0.013 | 0.968 ± 0.021 | 0.976 ± 0.0036 | 0.9733 ± 0.0031
17 | NCCCCCNCC12CC3CC(CC(C3)C1)C2 [IEM 1754 dihydrobroMide] | 1.03 ± 0.021 | 1.05 ± 0.025 | 1.03 ± 0.01 | 1.03 ± 0.015 | 1.003 ± 0.0058 | 1.013 ± 0.0058
18 | O=C(O)c1ccc2c(c1)nc(Nc1cccc(Cl)c1)c1ccncc12 | 0.993 ± 0.022 | 0.965 ± 0.018 | 1.02 ± 0.01 | 0.953 ± 0.013 | 1 ± 0.016 | 0.994 ± 0.02
19 | COc1ccccc1N1CCN(CCN(C(=O)c2ccc(F)cc2)c2ccccn2)CC1 [p-MPPF dihydrochloride] | 0.9777 ± 0.0038 | 0.935 ± 0.001 | 0.987 ± 0.01 | 1.01 ± 0.071 | 0.9773 ± 0.004 | 0.9837 ± 0.0057
20 | c1ccc(-c2ccccn2)nc1 [2,2'-Bipyridyl] | 1.002 ± 0.0076 | 1.01 ± 0.01 | 1 ± 0.011 | 1.02 ± 0.018 | 0.993 ± 0.0066 | 1.002 ± 0.0072
21 | O=C1NCCc2[nH]c(-c3ccncc3)cc21 | 1.02 ± 0.015 | 0.0894 ± 0.0076 | 0.9933 ± 0.0072 | 0.145 ± 0.006 | 0.916 ± 0.016 | 0.0151 ± 0.0021
22 | C[C@]12C[C@H](O)[C@H]3[C@@H](CCC4=CC(=O)CC[C@@]43C)[C@@H]1CC[C@@H]2C(=O)CO [Corticosterone] | 1.02 ± 0.011 | 1.02 ± 0.03 | 1.01 ± 0.01 | 1.01 | 0.98 ± 0.015 | 0.949 ± 0.022
23 | COC(=O)C1=C(C)NC(C)=C([N+](=O)[O-])C1c1ccccc1C(F)(F)F (racemic) | 0.99 ± 0.0072 | 0.942 ± 0.02 | 0.9753 ± 0.0031 | 0.9355 ± 0.00071 | 0.962 ± 0.01 | 0.947 ± 0.011
24 | O=C(/C=C/c1ccc(O)c(O)c1)c1ccc(O)cc1O [Butein] | 0.726 ± 0.034 | 0.431 ± 0.021 | 0.727 ± 0.033 | 0.594 ± 0.11 | 0.825 ± 0.035 | 0.231 ± 0.051
25 | Cc1cc(C)c(NC(=O)C[C@H](CC(=O)O)c2cccc3ccccc23)c(C(=O)N2CCC3(CCCC3)CC2)c1 | 1.01 ± 0.01 | 1.06 ± 0.021 | 1.02 | 1.09 ± 0.093 | 0.9983 ± 0.0029 | 1.01 ± 0.012
